# Measured values as given in PubChem BioAssay AID485344 (National Center for Advancing Translational Sciences (NCATS), 2010).
# In all, about 340,000 compounds went through this assay and about 6,900 (2%) were called active. Cut-off read from the data, not from the text of the source: active = inhibition above about 30%; inactive = below that, where a call was filed. Only a part is listed here, and it is no random draw. Entries without a call were filed so in the source.
# Target: D(2) dopamine receptor (Homo sapiens) (UniProt P14416)
# Chain of UniProt P14416 (P14416 whole entry, looked up): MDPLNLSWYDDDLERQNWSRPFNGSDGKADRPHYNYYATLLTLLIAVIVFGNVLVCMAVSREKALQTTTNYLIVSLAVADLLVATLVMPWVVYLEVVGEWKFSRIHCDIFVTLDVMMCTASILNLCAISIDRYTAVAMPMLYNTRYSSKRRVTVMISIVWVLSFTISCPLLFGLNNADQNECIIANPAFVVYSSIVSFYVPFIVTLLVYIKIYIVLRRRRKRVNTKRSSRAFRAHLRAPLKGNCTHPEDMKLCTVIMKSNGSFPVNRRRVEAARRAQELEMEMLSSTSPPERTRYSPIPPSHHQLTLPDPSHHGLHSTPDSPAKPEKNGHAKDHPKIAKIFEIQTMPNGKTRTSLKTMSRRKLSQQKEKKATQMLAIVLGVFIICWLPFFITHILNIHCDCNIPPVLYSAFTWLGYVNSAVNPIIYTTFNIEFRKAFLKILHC
# Assay: HTS Assay for Allosteric Antagonists of the Human D2 Dopamine Receptor: Primary Screen for Antagonists; note: 0% is about no effect
# Settings: HEK293 TREx D2 cells, calcium flux, dopamine EC80; at 10 µM; stronger effect = higher value
# Procedure, shortened: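 Antagonism is scored as inhibition of an EC80 dopamine-evoked calcium signal in a force-coupled, tetracycline-inducible HEK293 T-REx D2 line, with compound present 180 s before agonist.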
row,SMILES,inhibition
1,Cc1cccc(C)c1NC(=O)C1CCCN(S(=O)(=O)c2c(C)noc2/C=C/N(C)C)C1 (stereo not drawn),4.07%
2,COc1ccccc1CNC(=O)c1ccc(NC(=O)N2CC(C)Sc3ccccc32)cc1 (stereo not drawn),5.52%
3,O=C(COC(=O)c1cccs1)Nc1cccc(S(=O)(=O)N2CCOCC2)c1,active: 36.4%
4,COc1ccc(-n2ncc(C(=O)Nc3ccc(C)cc3Cl)c2C2CCN(C(=O)OC(C)(C)C)CC2)cc1,6.04%
5,CCOC(=O)c1ccc(NC(=O)CN2CCN(c3ccccc3)CC2)cc1,active: 61.7%
6,O=C(NC1CCN(Cc2ccccc2)CC1)c1ccc2c(c1)OCCCO2,active: 30.3%
7,C=CCc1ccc(OCC(O)CN2CCC(Cc3ccccc3)CC2)c(OC)c1 (stereo not drawn),active: 41.2%
8,CC(=O)c1ccc(N2CCN(C(=O)/C=C/c3ccc(S(=O)(=O)N4CCOCC4)cc3)CC2)cc1,active: 49.7%
9,CCc1ccc(-c2[nH]c3c(c2-c2c(-n4cccc4)n(C)c(=O)[nH]c2=O)c(=O)[nH]c(=O)n3C)cc1,-5.76%
10,O=C(Nc1nnc(S(=O)(=O)N2CCCCC2)s1)c1ccc(Cl)cc1,-6.79%
11,CC(=O)Nc1ccc(NS(=O)(=O)c2ccc3c(c2)CCCN3C(C)=O)cc1,15.8%
12,O=C(Nc1ccc(F)cc1)c1ccc(-n2cnnc2)cc1,-9.4%
13,Cc1cccc(-n2nnc(C(=O)NCc3ccccn3)c2N)c1,active: 30.5%
14,Cc1ccccc1OCc1nc2c3cnn(-c4ccccc4Br)c3ncn2n1,3.9%
15,CCn1cc2nc(SCc3cc(C)ccc3C)n(Cc3ccc(C)cc3)c(=O)c2n1,-6.35%
16,Cc1oc(-c2ccccc2F)nc1Cn1c(SCc2ccccc2F)nc2ccncc21,0.521%
17,Cc1cccc(/C=N/NC(=O)c2cc3c(s2)-c2ccccc2CC3)c1,active: 31.8%
18,O=C(/C=C/c1cccc([N+](=O)[O-])c1)NCC1CCCO1 (stereo not drawn),active: 60.4%
19,Cc1ccc(C2c3cccn3CCN2S(=O)(=O)c2ccc([N+](=O)[O-])cc2)cc1 (stereo not drawn),-7.81%
20,COc1ccc(Nc2oc(/C=C/c3ccc(F)cc3)nc2C#N)cc1,-4.14%
21,COCCCn1c(=N)c(S(=O)(=O)c2ccccc2)cc2c(=O)n3cccc(C)c3nc21,6.74%
22,Cc1ccc(NC2=Nc3ccccc3CC2)cc1,active: 60.6%
23,CN(C)CCNC(=O)Cc1ccc(NC(=O)N2CCCCc3ccccc32)cc1,4.2%
24,CCOC(=O)c1sc(NC(=O)c2nc(SCC)ncc2Cl)c(C(=O)OCC)c1C,-5.68%

row,SMILES,inhibition
1,COc1ccc2c(c1)NC1(O)c3ccccc3C(=O)C21O (stereo not drawn),active: 32.3%
2,Cc1nn(Cc2ccccc2)c(C)c1NC(=O)c1cc(C(C)C)on1,-14.7%
3,CCOC(=O)c1cc(-c2ccc(C)cc2)n(CC(=O)Nc2cccc(C(C)=O)c2)c1C,-4.81%
4,COc1ccc(Cl)cc1NC(=O)c1c(C(=O)Nc2cccc(C)c2C)sc2nc(C)cc(=O)n12,16.1%
5,Cc1ccc2nc(N3CCN(C(=O)C4COc5ccccc5O4)CC3)sc2c1 (stereo not drawn),-2.17%
6,COC(=O)c1ccc(CSc2nc3c([nH]c4ccccc43)c(=O)n2-c2cccc(OC)c2)o1,-17.5%
7,Cc1ccnc(NS(=O)(=O)c2ccc(NC(=O)c3cc(=O)c4ccc(C)c(C)c4o3)cc2)n1,-5.99%
8,COc1ccc(CNC(=O)c2cc3c(=O)n(Cc4cccs4)ccc3nc2C)cc1,20.1%
9,N#C/C(=C\c1ccc(-c2ccccc2[N+](=O)[O-])o1)C(=O)Nc1nc(-c2cccs2)cs1,active: 32.1%
10,COc1ccc(-c2nc3ccccc3o2)cc1NC(=O)c1ccc(N2CCC(C)CC2)c([N+](=O)[O-])c1,5.77%
11,CCCCNCCOCCOc1ccc(Cl)cc1Br,active: 72.3%
12,O=C(/C=C/c1ccco1)Nc1cc(Cl)ccc1C(=O)O,active: 34.4%
13,CN(C)c1ccc(CNc2nc(-c3ccco3)nn2S(=O)(=O)c2ccc(Cl)cc2)cc1,8.78%
14,Cc1cc(=O)n2c(C(=O)Nc3ccc(C)c(C)c3)c(C(=O)Nc3ccccc3)sc2n1,22.5%
15,CCc1cccc(C)c1NC(=O)C1CCCN(S(=O)(=O)c2cccc3nsnc23)C1 (stereo not drawn),-2.94%
16,CCN(C(=O)CSc1nnc(-c2ccc(Cl)cc2)o1)c1ccccc1,-10.1%
17,O=C(CN1C(=O)C2CCCCN2c2ccc(C(=O)N3CCCC3)cc21)NCc1ccccc1 (stereo not drawn),27.9%
18,COC(=O)c1ccccc1NC(=O)CSc1nc2sc3c(c2c(=O)[nH]1)CCCC3,-15.7%
19,c1ccc(OCCN2CCN(Cc3nc(-c4ccc5c(c4)OCO5)no3)CC2)cc1,active: 68.7%
20,COCCCNC(=O)Cn1c(=O)n(-c2cccc(C)c2)c(=O)c2c3c(sc21)CN(C(C)=O)CC3,-3.11%
21,COc1ccc(-c2cc(C(F)(F)F)nc(S(=O)(=O)CCCC(=O)Nc3ccccc3C(F)(F)F)n2)cc1OC,5.69%
22,COc1ccccc1CNc1nc(-c2ccco2)nn1C(=O)c1ccccc1[N+](=O)[O-],2.32%
23,CCCCn1c(CCNC(=O)c2ccc(F)cc2)nc2ccccc21,-8.26%
24,COc1ccc(S(=O)(=O)N2Cc3ccccc3CC2C(=O)Nc2cccc(C)c2)cc1OC (stereo not drawn),1.45%

row,SMILES,inhibition
1,COc1cccc(CNC(=O)Cn2cc3c(n2)-c2c(oc(C(=O)N4CCOCC4)c2C)CC3)c1,8.01%
2,COc1ccc(C(=O)NNC2=Nc3cccc4cccc2c34)cc1,active: 62.6%
3,O=C(CSc1nc2c(c(=O)[nH]1)CCCC2)Nc1cccc(O)c1,7.46%
4,CCCn1cc(S(=O)(=O)c2cccc(Cl)c2)c(=O)c2cc(F)c(N3CCN(CC)CC3)cc21,4.75%
5,COCCCNC(=O)C1CCN(c2nnc(-n3cccc3CNc3ccc(C)cc3)s2)CC1,0.068%
6,COc1cc2[nH]c(=O)n(CCCC(=O)NCc3ccccc3Cl)c(=O)c2cc1OC,-18.4%
7,O=C(CSc1nc(-c2ccco2)nc2cc(=O)[nH]n12)Nc1ccccc1Cl,-14.8%
8,O=C(Cn1c(=O)oc2ccccc21)NCc1ccccc1Cl,4.24%
9,O=C(NC1CCN(Cc2ccccc2)CC1)c1ccccc1,active: 73.8%
10,COc1ccc(-n2c(-c3ccc(F)cc3)cn3c4c(=O)n(C)c(=O)n(C)c4nc23)cc1,-3.77%
11,CCOc1ccc2ncc3c(-c4ccccc4)nn(CC(=O)Nc4cccc(F)c4)c3c2c1,-0.204%
12,Cc1ccc(C)c(N2CCN(CCCNC(=O)Cn3c(-c4cccs4)cc4ccccc43)CC2)c1,-10.3%
13,CCOC(=O)c1cnc(-n2nc(C)cc2C)nc1NCCc1ccccc1,active: 34.3%
14,CCOC(=O)c1sc(N2C(=O)c3oc4ccc(F)cc4c(=O)c3C2c2cccc(OC)c2)nc1C (stereo not drawn),-9.14%
15,CCN(C(=O)Cn1c(SCc2ccccc2F)nc2cccnc21)c1ccccc1,-5.93%
16,Cc1cc(N2CCCCC2)nc2ccc(NC(=O)CCC(=O)N3CCN(c4cccc(Cl)c4)CC3)cc12,-19.4%
17,Cc1ccc2scc(N3CCN(c4ccccc4)CC3)c(=O)c2c1,17.4%
18,CCOc1ccc(CCNC(=O)c2ccc3[nH]c(C)c(C)c3c2)cc1,-3.76%
19,O=C(NC1CCCC1)C(c1ccncc1)N(Cc1cccs1)C(=O)c1csnn1 (stereo not drawn),active: 35.6%
20,O=C(CSCc1nc2cccnc2n1C1CCCCC1)NCc1cccc(Br)c1,-12.5%
21,O=C(OCc1ccccc1)c1ccc(-c2nnn(Cc3ccccc3F)n2)cc1,19%
22,CCCNC(=O)c1cc2n(n1)CCCN(Cc1ccc(F)cc1)C2=O,25.3%
23,O=C(c1ccc2c(c1)N(Cc1ccccc1F)C(=O)c1ccccc1S2(=O)=O)N1CCCCCC1,-4.72%
24,CCOc1ccc(CCNC(=O)c2ccc(Cn3c(=O)c4cccn4c4cccnc43)cc2)cc1,0.715%

row,SMILES,inhibition
1,COc1ccc(-c2csc3ncnc(Nc4ccc(OC)c(OC)c4)c23)cc1,-9.79%
2,COc1cccc(C(=O)c2sc(Nc3ccc(C)cc3C)c(S(=O)(=O)c3ccccc3)c2N)c1,-6.37%
3,CCOc1ccc(NC(=O)C(CC)n2nc(-c3ccc(C)c(C)c3)ccc2=O)cc1 (stereo not drawn),1.86%
4,CCOc1ccc(OCC)c(NC(=O)CN(c2ccc(C)cc2)S(=O)(=O)c2c(C)n[nH]c2C)c1,-9.26%
5,COc1ccc(C2CC(=O)c3c([nH]c(C(=O)OC4CCCC4)c3C)C2)cc1OC (stereo not drawn),-8.04%
6,COc1ccccc1N1CCN(C(c2ccccc2)c2nnc(-c3ccccc3Cl)o2)CC1 (stereo not drawn),6.8%
7,Cc1ccc(NC(=O)Cn2c(=O)n(Cc3nc(-c4ccccc4)no3)c(=O)c3cc4c(cc32)OCO4)cc1C,-2.88%
8,NC(=Nc1ccc(Cl)cc1)c1ccccc1,active: 33.9%
9,Cc1ccc(C)c(NC(=O)C2CCCN(S(=O)(=O)c3cccc4nsnc34)C2)c1 (stereo not drawn),-2.37%
10,CCC1CCCCN1C(=O)Cn1c(=O)n(-c2ccccc2C(F)(F)F)c(=O)c2c(C)c(C(=O)N(C)C)sc21 (stereo not drawn),-21.5%
11,CCOC(=O)c1ccc(N2C(=O)c3[nH]nc(-c4ccccc4)c3C2c2cccs2)cc1 (stereo not drawn),11%
12,Cc1cccc(N(CC(=O)NC2CCCC2)C(=O)CS(=O)CC(=O)Nc2ccc3c(c2)OCO3)c1 (stereo not drawn),active: 31.7%
13,COc1ccc(CCNc2nc(SCc3ccccc3Cl)nc3ccccc23)cc1OC,-27.9%
14,CCOc1cc(C=O)ccc1OCCSc1ccc(C)cc1,active: 39.6%
15,COc1ccc(NC(=O)Cn2c(=O)n(CCc3ccccc3)c(=O)c3sc4ccccc4c32)cc1,-0.889%
16,Cc1ccccc1NC(=O)Cn1c(=O)n(CCCCC(=O)NCc2ccccc2Cl)c(=O)c2ccccc21,-17.2%
17,O=C(CN1C(=O)COc2ccc(S(=O)(=O)Nc3ccccc3)cc21)NCc1ccccc1Cl,-1.09%
18,CCOC(=O)c1c(S(=O)(=O)N2CCC(C(=O)Nc3cccc(C#N)c3)CC2)c(C)n(C)c1C,23.9%
19,Cc1c(C(=O)OC2CCCCCC2)[nH]c2c1C(=O)CC(c1ccccc1Cl)C2 (stereo not drawn),6.32%
20,CCN(CC)S(=O)(=O)c1ccc(C(=O)NC2CC(=O)N(c3ccc4c(c3)OCCO4)C2)cc1 (stereo not drawn),2.56%
21,Cc1ccc(-c2ccc(=O)n(CC(=O)NC(C)c3ccccc3)n2)cc1 (stereo not drawn),1.11%
